# The campaign covered roughly 310,000 compounds. About 14,000 (4.5%) showed an effect of 50% or more. The effect is printed as a negative number. The list shows a part of the results.
# Biological target: human ether-à-go-go-related gene (hERG) potassium channel (human, UniProt Q12809)
# Assay: primary screen, population patch clamp on CHO cells stably expressing hERG
# 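Also: peak tail current of the secondary pulse compared with the same well before compound.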
# Sequence of human ether-à-go-go-related gene (hERG) potassium channel (Q12809 whole entry, looked up): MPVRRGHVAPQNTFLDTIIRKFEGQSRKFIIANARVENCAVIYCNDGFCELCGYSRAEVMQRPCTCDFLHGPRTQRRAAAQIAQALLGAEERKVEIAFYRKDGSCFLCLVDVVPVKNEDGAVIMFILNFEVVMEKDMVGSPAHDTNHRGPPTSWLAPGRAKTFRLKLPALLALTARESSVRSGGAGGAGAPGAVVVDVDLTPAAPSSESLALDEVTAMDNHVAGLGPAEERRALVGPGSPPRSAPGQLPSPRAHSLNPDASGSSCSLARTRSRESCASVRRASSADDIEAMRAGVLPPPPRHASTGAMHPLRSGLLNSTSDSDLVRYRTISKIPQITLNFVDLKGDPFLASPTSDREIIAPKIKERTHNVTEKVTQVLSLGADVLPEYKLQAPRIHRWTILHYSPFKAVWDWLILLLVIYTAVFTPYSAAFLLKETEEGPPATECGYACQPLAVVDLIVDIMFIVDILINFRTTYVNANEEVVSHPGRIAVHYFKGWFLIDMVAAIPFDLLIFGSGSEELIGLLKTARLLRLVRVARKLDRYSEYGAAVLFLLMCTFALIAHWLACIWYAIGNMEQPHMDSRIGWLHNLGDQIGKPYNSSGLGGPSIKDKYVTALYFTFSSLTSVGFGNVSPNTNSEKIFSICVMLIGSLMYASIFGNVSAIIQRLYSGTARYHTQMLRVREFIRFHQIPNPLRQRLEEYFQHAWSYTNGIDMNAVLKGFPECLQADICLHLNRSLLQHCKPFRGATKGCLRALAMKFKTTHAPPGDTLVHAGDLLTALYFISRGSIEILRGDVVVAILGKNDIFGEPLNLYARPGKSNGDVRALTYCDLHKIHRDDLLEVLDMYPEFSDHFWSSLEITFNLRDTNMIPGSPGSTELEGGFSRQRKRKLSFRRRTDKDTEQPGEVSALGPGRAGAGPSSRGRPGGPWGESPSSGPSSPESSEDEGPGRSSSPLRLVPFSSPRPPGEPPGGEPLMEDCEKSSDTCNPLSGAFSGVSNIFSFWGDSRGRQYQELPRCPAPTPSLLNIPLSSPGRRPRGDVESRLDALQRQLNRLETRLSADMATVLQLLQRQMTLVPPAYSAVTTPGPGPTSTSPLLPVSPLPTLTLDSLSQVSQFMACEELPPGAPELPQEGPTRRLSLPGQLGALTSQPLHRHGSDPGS
row,Structure (SMILES),"hERG current change (%, negative = inhibition) at 10uM [%]"
1,O=c1[nH]c2cc([N+](=O)[O-])c([N+](=O)[O-])cc2[nH]c1=O,5.87
2,CCOc1cccc(C(=O)N2CCCN(C)CC2)c1,3.11
3,CC1(C)CC(=O)c2sc(NS(=O)(=O)c3ccc(Br)cc3)nc2C1,27
4,Cc1ccnc(SCC(=O)Nc2cc(C)on2)n1,14.4
5,O=C(Nc1ccc(Nc2ccccc2)cc1)c1ccco1,-26
6,CCOC(=O)C1=C(C)NC(C)=C(C(=O)OCC)C1c1ccccn1,15.4
7,Cc1nc2cc(NS(=O)(=O)c3ccccc3)ccc2n1C,9.21
8,CCCCCC(=O)NC(=S)Nc1cccc(-c2nc3ncccc3o2)c1,-3.22
9,COc1cc2[nH]c3c(c2cc1OC)CCN1CCCC[C@@H]31,13.4
10,C=C(C)c1ccc(C(C)(C)NC(=O)N(Cc2ccccc2)Cc2ccco2)cc1,-1.79
11,COC(=O)CCC(=O)OC1(C)C(=O)C=C2C=C(C3CC3)N(CCc3ccccn3)C=C2C1=O (stereo not drawn),14.2
12,COc1ccc([C@H]2CC(=O)C=C(c3cccc4c3Oc3ccccc3S4)C2)cc1OC,-13.1
13,COC(=O)c1c(N(S(C)(=O)=O)S(C)(=O)=O)sc2c1CCN(c1ncc(C(F)(F)F)cc1Cl)C2,13
14,O=C(NCc1ccccc1)c1onc(CSc2ccc(Cl)cc2)c1C(=O)NCc1ccccc1,9.17
15,COC(=O)CC1C(=O)NCCN1C(=O)c1cc(OC)c(OC)cc1OC (stereo not drawn),23.2
16,CCC(C(=O)Nc1nc(C)c(C(=O)OC)s1)c1ccccc1 (stereo not drawn),-16.8
17,O=C(NCc1ccccc1)C(c1ccco1)N(C(=O)c1ccccn1)c1ccccc1 (stereo not drawn),1.58
18,C#CCOC(=O)Nc1cccn(Cc2c(Cl)cccc2Cl)c1=O,-3.48
19,COc1ccc(CNCC(=O)N2CCC3(CC2)OCCO3)cc1.O=C(O)C(=O)O,-11.4
20,Cc1cc(C)c(NC(=O)CCCC(=O)O)c(Cl)c1,12
21,COC(=O)c1ccc(CO/N=C2\CCCc3nonc32)cc1,-35.1
22,CCOc1ccccc1N(CC(=O)NCCSCc1ccco1)S(=O)(=O)c1ccccc1,1.71
23,Cc1ccc2nsnc2c1S(=O)(=O)Nc1cccc2nsnc12,-0.692

row,Structure (SMILES),"hERG current change (%, negative = inhibition) at 10uM [%]"
1,CNc1cc(N2CCCC2)ccc1[N+](=O)[O-],-2.72
2,Cl.OC(CNCC1COc2ccccc2O1)COc1ccc(Cl)cc1 (stereo not drawn),-56.2
3,Cn1c(CC(=O)NC(C)(C)CO)c(Sc2ccccc2)c2ccccc21,-37.8
4,COCCCNCC(O)COc1cccc2[nH]c(C)cc12 (stereo not drawn),10
5,Cc1cc([N+](=O)[O-])cc2c1NC(=O)C2(O)N1CCOCC1 (stereo not drawn),6.67
6,CCOC(=O)c1[nH]c2ccc(OC)cc2c1NC(=O)CCN1CCc2ccccc2C1,-59.5
7,COc1ccc(CCNC(=O)c2ccco2)cc1OC,2.1
8,CC1(C)Cc2c(c(N3CCOCC3)nc3sc4c(=O)[nH]cnc4c23)CS1,4.52
9,Cc1ccc(C(=O)N/N=C/c2ccc(-c3ccc(Br)cc3[N+](=O)[O-])o2)o1,-9.13
10,CCOC(=O)CNS(=O)(=O)c1ccc(C)cc1,3.8
11,CC(C)(C)C(=O)Nc1ccc(N2CCCC2)cc1,-8.68
12,COc1ccc(Cl)cc1NC(=O)c1cc(-c2ccc(C)cc2O)n[nH]1,15.9
13,CCN(CC)S(=O)(=O)c1ccc(N(C)Cc2cccnc2)nc1,-15.2
14,COc1ccc(OC)c(NC(=O)COC(=O)c2ccc(-n3cnnn3)cc2)c1,-12.5
15,CCN(CC(=O)NCc1ccc(Cl)cc1)C(=O)CSc1cc(C)ccc1C,-47.5
16,COCCNC(=S)N(CCc1c(C)[nH]c2ccc(F)cc12)Cc1cccnc1,-21.5
17,O=C(COc1ccccc1)Nc1ccccc1N1CCN(c2ccccc2)CC1,1.02
18,Nc1nc(SCC(=O)NC2CCCCC2)n[nH]1,11.1
19,Cc1cc(C(=O)OCC(=O)Nc2cccc(S(=O)(=O)N(C)C)c2)c2ccccc2n1,-9.8
20,CCOC(=O)CSc1nnc(NC(=O)c2cccc([N+](=O)[O-])c2)s1,-1.68
21,CCOc1ccc(Br)c(C2(O)CC(C)N(C)CC2C)c1 (stereo not drawn),-10.5
22,COc1ccc(N2C(=O)CC(=O)NC2=O)cc1,-11.3
23,CN1CCN(CC(=O)Nc2c(C#N)cnn2-c2ccccc2)CC1,12.1

row,Structure (SMILES),"hERG current change (%, negative = inhibition) at 10uM [%]"
1,COc1ccc(N2CCN(c3ccc(N4C(=O)COCC4=O)cc3[N+](=O)[O-])CC2)cc1,-11.1
2,COc1ccccc1Cc1nc2ccccc2n1S(=O)(=O)c1ccc(Cl)cc1,13.4
3,COc1ccc(NC(=O)COC(=O)c2ccc(N3CCCC3=O)cc2)cc1OC,14.1
4,CC1C(=O)Nc2ccc(S(=O)(=O)Nc3ccccc3Br)cc2NC1=O (stereo not drawn),-5.66
5,CC(C)n1nc(C(=O)Nc2cccc(S(=O)(=O)NCc3ccco3)c2)c2ccccc2c1=O,-16.7
6,CN(CC(=O)NC(=O)NC1CCCCC1)CC(=O)Nc1ccc(Cl)cc1,-32.1
7,O=C(Nc1cccc([N+](=O)[O-])c1)Nc1cnccn1,20.9
8,O=C(CCNC(=O)N1CC(=O)Nc2ccccc21)NCCc1cccc(F)c1,16.3
9,COC(=O)c1ccc(NC(=S)N2CCC(C(N)=O)CC2)cc1,12.2
10,CCC(CC)NC(=O)c1cc(OC)c(OC)cc1[N+](=O)[O-],26.5
11,Cc1cccc2cc(COC(=O)c3ccco3)c(=O)[nH]c12,1.12
12,O=C(Nc1nc2c(s1)CCCC2)c1cc(-c2ccncc2)nc2ccccc12,-4.4
13,COc1ccc(Cl)cc1NC(=O)c1nnn(CC(=O)Nc2ccc(C)c(C)c2)c1N,9.23
14,COc1ccc(OC)c(CC(NC(C)=O)C(=O)NC2CCN(c3nnnn3-c3ccccc3)CC2)c1 (stereo not drawn),2.08
15,Cc1cc(C(=O)CSc2nc(N)cc(N)n2)c(C)n1-c1cccc(F)c1,-14.2
16,CCCC#Cc1ccc2c(c1)COc1c3ccccc3nn1-2,7.29
17,COc1ccc(NC(=O)CN2C(=O)NC3(CCCC3)C2=O)c(OC)c1,24.1
18,CCc1nc(CNC(=O)C2CCC(=O)N(CCc3ccc(OC)cc3)C2)cs1 (stereo not drawn),7.97
19,COc1cc(NC(=O)C(C)Oc2ccccc2)ccc1NC(=O)COc1ccccc1 (stereo not drawn),0.7
20,CCOC(=O)C1=C(COC(=O)/C=C/c2ccc(Cl)cc2)NC(=O)NC1C (stereo not drawn),18.5
21,Cl.O=C(CN1CCN(C(=O)c2cccc(F)c2)CC1)NC1CCCCC1,2.39
22,Cc1nn(C)c(C(=O)NC(=S)Nc2ccccc2O)c1Cl,-1.79
23,Cc1ccc(NC(=O)C(=O)NCCN2CCN(C(=S)Nc3ccccc3)CC2)cc1,-19.1

row,Structure (SMILES),"hERG current change (%, negative = inhibition) at 10uM [%]"
1,N#Cc1ccc(NC(=O)CN2CCCC2)cc1Cl,0.986
2,CC(=O)c1cccc(NC(=O)C(NC(C)C)c2ccccc2)c1 (stereo not drawn),10.5
3,Cc1cccc(C)c1OCC1CNC(=O)O1 (stereo not drawn),0.573
4,COc1cc(NC(=O)CN2C(=O)C(c3ccccc3)=NC2(C)C)cc(OC)c1,7.18
5,O/N=C1\CCSc2ccc(F)cc21,-6.52
6,CCCc1nnc(SCC(=O)N2CCCCC2)n1CC1CCCO1 (stereo not drawn),-0.393
7,O=C(c1cc(-c2ccc(Cl)cc2)on1)N1CCOCC1,-0.136
8,C/C(CC(=O)Nc1ccc2c(c1)OCCO2)=N\NC(=O)COc1ccccc1,-9.15
9,CC(NC(=O)c1noc2c1CCCCC2)c1ccccc1 (stereo not drawn),-30.4
10,O=C(N/N=C/c1cccs1)c1[nH]ncc1Br,13.8
11,Cc1cccc(NC(=O)CNC(=O)c2ccc3c(c2)OCO3)n1,4.92
12,Cc1ccc(-c2nnn(CC(=O)N(CC3CCCO3)C(C(=O)NCC3CCCO3)c3ccc(F)cc3)n2)o1 (stereo not drawn),11.3
13,Br.Nc1nc(-c2ccccc2)c(N=Nc2ccccc2Cl)s1,5.41
14,CCCSc1nsc(NC(=O)c2cccnc2OCC)n1,6.12
15,Clc1ccccc1OCc1nn2c(-c3ccncc3)nnc2s1,-30.5
16,CN(Cc1ccccc1)C(=O)CCc1ccccc1,-4.6
17,COC(=O)C1=C(c2cccc(C#N)c2)C[C@@H]2CC[C@H]1N2C(=O)NCc1cc(C)oc1C(F)(F)F,-22.4
18,CCCc1nc2c(C)cc(C)cc2c(N)c1CC,-59.2
19,CCc1c(O)nc(SCC(=O)Nc2ccccc2C)n(-c2ccc(C)cc2)c1=O,8.37
20,CC1CN(C(=O)Cn2cc(SCC(=O)N3CCOCC3)c3ccccc32)CC(C)O1 (stereo not drawn),15.9
21,CCOC(=O)C1=C(COC(=O)COc2ccc(C#N)cc2)NC(=O)NC1C (stereo not drawn),-7.13

# From paper PMC4336329 (PLoS ONE, 2015)
